Source: PubChem BioAssay AID2546 (National Center for Advancing Translational Sciences (NCATS), 2010)
Values joined by “and” are separate entries in the source; they are usually repeats but may differ in a detail not shown here. Equal entries are not always repeated. Screen size: about 310,000 compounds; about 11,000 (3.5%) were called active. Inconclusive results, whose numbers are uncertain, are shown with a selection of clear calls. Calls follow the shape of the dose curve; as a rule, active = well fitted inhibition curve with a large enough effect; inconclusive = small, poorly fitted or top-dose-only effect, or effect the other way; inactive = flat fitted curve, though single readings scatter. No potency is given beside an inconclusive call; the fits are too rough. Some compounds were tested as several samples or in several runs, with calls that do not always agree.

Assay: VP16 counterscreen qHTS for inhibitors of ROR gamma transcriptional activity;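 also: Gal4-VP16 expression switched on by copper sulfate through the metallothionein promoter; nearly all actives have a fitted effect of over 50% in size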
Conditions: Drosophila S2 Gal4-VP16 UAS-luciferase, luminescence, 20 h; series mostly up to 53.6 µM
Excerpt: NIH Molecular Libraries Probe Production Network [MLPCN]
NIH Chemical Genomics Center [NCGC]
Assay Provider: Dan Littman, New York University
The retinoic acid-related orphan receptor (ROR) gamma is a transcription factor that has a central role in the differentiation of Th17 cells, a subset of T helper cells that secrete the inflammatory cytokines IL-17, IL-17F, and IL-22. Th17 cells have been implicated in graft versus host disease, autoimmune disease and asthma. ROR gamma is induced in naive T helper cells in the presence of TGF-beta combined with IL-6, IL-21, or IL-23, and thereafter directs the expression of the Th17 lineage cytokines. To identify nonspecific inhibitors, a Drosophila Schneider cell line was stably transfected with two vectors: a gene expressing a fusion of the Gal4 DNA binding domain and VP16 transactivation domain under the control of the metallothionine promoter and a Photinus luciferase reporter regulated by the Gal4 binding site enhancer, UAS. […] Small molecule inhibitors that inhibit components common to the RORgt and VP16 assays, such as the Gal4 DNA binding domain or the UAS luciferase reporter, will be active in both assays and thus scored as nonspecific.
For screening, 600 cells in 4 uL/well were dispensed into white solid 1536-well plates (Grenier) using a solenoid-based dispenser. Following transfer of 23 nL compound or DMSO vehicle by a pin tool, the plates were incubated 1 hr at ambient temperature, and 1 uL/well copper sulfate (700 uM final concentration) was added. The plates were centrifuged 15 s at 1000 RPM and incubated 20 hr at ambient temperature. After addition of 1.5 uL Photinus luciferase detection reagent, the plates were incubated 10 min at ambient temperature and then read by a ViewLux (Perkin Elmer) to detect luminescence.
Potency is read from the fitted curve at half-maximal effect; tags tell the direction and shape of the fitted curve.

SMILES | Potency
O=C1C(Cl)=C(Cl)C(=O)C(Cl)=C1Cl | inconclusive [inhibitor, single point]
CC1CCN(S(=O)(=O)c2ccc(NN=C(C#N)C#N)cc2)CC1 | inconclusive [inhibitor, single point]
O=c1cc(-c2ccc(O)c(O)c2)oc2cc(O)cc(O)c12 | inactive and active: 11.2 µM
O=C(c1ccccc1F)c1cn(CC(=O)N2CCCC2)c2ccccc12 | inactive
COc1ccc(C(=O)N2CCOCC2)cc1S(=O)(=O)N1CCC(C)CC1 | inactive
COc1c(C)cc(C(=O)C2CCCN(Cc3cnc(C)s3)C2)cc1C (centres undefined) | inactive
CCCCCn1c(=O)c(C(=O)NC(C)c2ccccc2)c(O)c2ccccc21 (centres undefined) | inconclusive [inhibitor, single point]
O=C(Nc1ccc(Cl)c(Cl)c1)O/N=C/c1ccncc1 | inconclusive [inhibitor, full curve, poor fit]
O=C(NC(=O)c1c(F)cccc1F)Nc1ccc(Cl)c(Oc2ncc(C(F)(F)F)cc2Cl)c1 | inactive
N#CC(C#N)=NNc1ccc(OC(F)(F)F)cc1 | active: 112 nM and active: 355 nM
CC(C)(C)c1cc(O)ccc1O | active: 3.16 µM
CC/C(=N\N1CCCCCC1)c1c(O)n(-c2ccc(C)cc2)c(=O)[nH]c1=O | inconclusive [inhibitor, single point]
COC[C@H]1OC(=O)c2coc3c2[C@@]1(C)C1=C(C3=O)[C@H]2CCC(=O)[C@@]2(C)C[C@H]1OC(C)=O | inconclusive [inhibitor, partial curve]
COC(=O)NC/C=C\c1nc(CC/C=C\C(=O)O[C@H]2C[C@H]3CC(=O)O[C@@H](/C=C\CC(C)C)C[C@@H]4CC[C@H](C)[C@H](C[C@@H](OC)C[C@H](C2)O3)O4)co1 | inconclusive [inhibitor, partial curve, poor fit]
CN=C=O | inactive
Cc1ccc2c(Cl)cc(Cl)c(O)c2n1 | active: 0.891 µM
CCCCCn1c(=O)c(C(=O)NCc2ccccc2Cl)c(O)c2ccccc21 | inconclusive [inhibitor, single point]
c1ccc2cc(CC3=NCCN3)ccc2c1 | inactive
Oc1ccc2c3c1O[C@H]1c4[nH]c5ccccc5c4C[C@]4(O)[C@H](C2)N(CC2CC2)CC[C@@]314 | inconclusive [inhibitor, single point]
O=C(NC1CN2CCC1CC2)c1ccc(-c2ccc([N+](=O)[O-])cc2)o1 (centres undefined) | inconclusive [activator, single point]
C=CCc1c(C)[nH]c(=S)c(C#N)c1C | inconclusive [inhibitor, single point]
CC(=O)Nc1ccc(NC(=O)CN(c2ccc(C34CC5CC(CC(C5)C3)C4)cc2)S(C)(=O)=O)cc1 | inconclusive [inhibitor, single point]

SMILES | Potency
COCCNC(=O)c1c(NC(=O)c2ccc(Br)o2)n(Cc2ccccc2)c2nc3ccccc3nc12 | inconclusive [inhibitor, single point]
COP(=S)(OC)Oc1ccc(Sc2ccc(OP(=S)(OC)OC)cc2)cc1 | inconclusive [inhibitor, single point]
CC1CCCCC1n1c(-c2cccnc2)n[nH]c1=S (centres undefined) | inconclusive [inhibitor, partial curve]
Clc1ccc(C(c2ccc(Cl)cc2)n2cc[n+](CC(OCc3ccc(Cl)cc3Cl)c3ccc(Cl)cc3Cl)c2)cc1 (centres undefined) | active: 11.2 µM
CN1CC[C@@]2(C)c3cc(O)ccc3N(C)C2O1 (some centres undefined) | inconclusive [inhibitor, single point]
C=C(C)[C@]12C[C@@H](C)[C@@]34OC(Cc5ccccc5)(O[C@@H]1[C@@H]3C=C(COC(=O)Cc1cc(OC)c(O)cc1I)C[C@]1(O)C(=O)C(C)=C[C@@H]41)O2 | inconclusive [inhibitor, single point]
N#CC(C#N)=C(C#N)c1ccc(Nc2ccccc2)cc1 | active: 14.1 µM
C=C(C)C1Cc2c(ccc3c2OC2COc4cc(OC)c(OC)cc4C2C3=O)O1 (centres undefined) | inconclusive [inhibitor, partial curve, poor fit]
CCCCCCCCCCCCCCCC[n+]1ccccc1 | active: 15.8 µM
Cc1cc(OC(=O)c2cccs2)c2c3c(c(=O)oc2c1)CCCC3 | inconclusive [inhibitor, single point]
Cc1ccc(/C=C2\C(=O)NC(=O)N(CCc3ccc(F)cc3)C2=O)o1 | inconclusive [inhibitor, single point]
O=C(Nc1ccc(F)cc1F)c1cccn(Cc2ccccc2)c1=O | inconclusive [activator, partial curve]
O=C1NO[C@@H]2CN[C@@H](C(=O)O)[C@H]12 | inactive
Cc1nonc1OCCNCCNc1ccc([N+](=O)[O-])c2cccnc12 | active: 5.01 µM
C=C1C/C(=C/C)C(=O)O[C@@H]2CCN3CC=C(COC(=O)[C@]1(C)O)[C@@H]23 | inactive
Cc1cc(OCC(=O)N2CCC(C(=O)NCC(C)C)CC2)c2c3c(c(=O)oc2c1)CCCC3 | inconclusive [inhibitor, single point]
COCc1cc(C)c(C#N)c(=S)[nH]1 | inconclusive [inhibitor, single point]
CN1C(=O)C(=Cc2ccc(N3CCOCC3)o2)C(=O)N(C)C1=S | inactive
COc1ccc(C[C@@H]2NC[C@H](O)[C@@H]2OC(C)=O)cc1 | active: 0.0398 µM
COC(=O)[C@@H]1[C@@H](C(=O)OC)C2(c3ccccc3-c3ccccc32)N(c2ccc(Cl)cc2)N1C#N | active: 4.47 µM
COCCOC(=O)c1c(N)n(Cc2ccccc2)c2nc3ccccc3nc12 | inactive
CSc1cccc(CNC(=O)C2CCC(=O)N(Cc3cccc(C(F)(F)F)c3)C2)c1 (centres undefined) | inconclusive [inhibitor, single point]
